# Measurements from article PMC4336329 (PLoS ONE, 2015).
# Hit rate of the full screen: of about 310,000 compounds, about 2,200 (0.71%) showed an effect of 50% or more. The effect is printed as a negative number. The list shows a part of the results.
# Biological target: human ether-à-go-go-related gene (hERG) potassium channel (human, UniProt Q12809)
# Test: primary screen, population patch clamp on CHO cells stably expressing hERG
# Chain of human ether-à-go-go-related gene (hERG) potassium channel (Q12809 whole entry, looked up): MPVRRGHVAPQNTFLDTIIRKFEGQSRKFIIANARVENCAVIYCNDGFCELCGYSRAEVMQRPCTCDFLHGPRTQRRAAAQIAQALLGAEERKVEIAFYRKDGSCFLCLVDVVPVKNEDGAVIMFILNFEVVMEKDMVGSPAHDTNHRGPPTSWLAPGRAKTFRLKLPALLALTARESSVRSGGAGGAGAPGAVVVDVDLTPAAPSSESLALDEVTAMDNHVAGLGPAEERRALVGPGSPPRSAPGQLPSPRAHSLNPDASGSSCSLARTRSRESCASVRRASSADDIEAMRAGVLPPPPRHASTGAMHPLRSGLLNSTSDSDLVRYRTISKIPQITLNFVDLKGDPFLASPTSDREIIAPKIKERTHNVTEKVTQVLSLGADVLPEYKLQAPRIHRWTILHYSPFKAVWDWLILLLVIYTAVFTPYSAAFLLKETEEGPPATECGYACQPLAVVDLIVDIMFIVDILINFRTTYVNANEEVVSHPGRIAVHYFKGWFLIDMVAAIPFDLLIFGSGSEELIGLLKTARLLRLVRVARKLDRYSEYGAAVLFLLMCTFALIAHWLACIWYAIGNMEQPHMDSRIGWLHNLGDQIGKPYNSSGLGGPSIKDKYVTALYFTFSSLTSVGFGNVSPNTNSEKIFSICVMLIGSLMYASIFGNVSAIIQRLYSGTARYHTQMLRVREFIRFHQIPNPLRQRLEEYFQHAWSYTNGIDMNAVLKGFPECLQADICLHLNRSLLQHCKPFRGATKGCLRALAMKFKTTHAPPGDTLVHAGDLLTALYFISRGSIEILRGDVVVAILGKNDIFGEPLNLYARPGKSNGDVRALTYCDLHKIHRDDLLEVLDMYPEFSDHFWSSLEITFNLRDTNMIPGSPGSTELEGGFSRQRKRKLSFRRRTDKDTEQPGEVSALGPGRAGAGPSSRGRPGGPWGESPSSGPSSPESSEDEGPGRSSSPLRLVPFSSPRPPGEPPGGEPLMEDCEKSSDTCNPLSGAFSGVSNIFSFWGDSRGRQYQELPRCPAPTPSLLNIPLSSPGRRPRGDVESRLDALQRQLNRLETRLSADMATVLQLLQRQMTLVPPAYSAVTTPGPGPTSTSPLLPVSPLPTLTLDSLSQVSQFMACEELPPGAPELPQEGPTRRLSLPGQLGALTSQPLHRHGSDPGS
row,Compound,"hERG current change (%, negative = inhibition) at 1uM [%]"
1,CCCCSc1nnc(CCNC(=O)OC(C)(C)C)o1,9.25
2,CCCCNC(=O)CCC(=O)Nc1ccc2nc(N3CCCCC3)cc(C)c2c1,4.27
3,O=C(NCc1ccccc1)C1CCCN1S(=O)(=O)c1ccc(Cl)cc1 (centres unmarked),12.3
4,C(=N\Nc1nc2ccccc2[nH]1)/c1ccccc1,5.68
5,CCn1c(=O)c2c(nc(SCC(=O)NCC3CCCO3)n2C)n(C)c1=O (centres unmarked),7.1
6,COC(=O)c1ccc(N/C=C/C(=O)c2ccc(OC)c(OC)c2)cc1,-1.27
7,Cc1nonc1CC(=O)NC1CCCc2c1cnn2-c1ccc(F)cc1F (centres unmarked),13.9
8,Cc1nn(CC(=O)NC2CCC(C)CC2)c(=O)c(C#N)c1C (centres unmarked),-2.51
9,Cc1ccccc1OCc1nnc(SCC(=O)N2c3ccccc3Sc3ccc(Cl)cc32)o1,10.3
10,CN(CCC1CCCCO1)C(=O)CCc1nnc(CCc2ccccc2)o1 (centres unmarked),12
11,CC#CC(=O)NC1CCCN(C2Cc3ccccc3C2)C1 (centres unmarked),0.543
12,CC(C)Cn1c(O)c(/C=C2\C=NN=C2c2ccccc2)sc1=S,17.3
13,CCOc1ccc(N(C(=O)CNC(=O)c2ccco2)C(C(=O)NC2CCCC2)c2ccncc2)cc1 (centres unmarked),6.96
14,CC(C)[C@]12CC(=O)[C@H](C)[C@H]1C2,15.8
15,O=C(NCc1ccc2c(c1)OCO2)Nc1ccc(Cl)cc1,9.07
16,O=C(Nc1cccc(Br)c1)c1cc2ccccc2o1,1.46
17,COc1ccccc1NC(=O)c1c(N=Cc2ccccc2O)cnn1C,11.9
18,Cn1ccc(NC(=O)c2ccc(Cl)cc2)n1,11
19,NC(=O)C(c1ccc(F)cc1)c1ccc(C(=O)c2ccccc2)cc1 (centres unmarked),6.27
20,OC(CN1CCN(Cc2ccccc2)CC1)c1ccc(Br)cc1 (centres unmarked),-46.1
21,CCCC(C(=O)NCc1ccco1)N(Cc1ccco1)C(=O)CNS(=O)(=O)c1ccccc1 (centres unmarked),14.4
22,O=C(O)c1ccc2c(c1)C(=O)N(CCc1c[nH]c3ccccc13)C2=O,11.8
23,Nc1c(C(=O)N2CCCCCC2)oc2ccccc12,6.62

row,Compound,"hERG current change (%, negative = inhibition) at 1uM [%]"
1,N#Cc1cnn(-c2cccc(Cl)c2)c1N,8.85
2,Cn1c(N)c(C(=O)COC(=O)COc2ccc(C#N)cc2)c(=O)n(C)c1=O,-7.25
3,CCOC(=O)C1CCCN(C(=O)c2cc(COc3ccc(C)nc3)on2)C1 (centres unmarked),6.13
4,CC1(C)COCN1C(=O)c1ccc(Cl)c(Cl)c1,15.9
5,CC[C@H](C)C(C(=O)N1CCN(C(=O)OC(C)(C)C)CC1)n1cc(C(CO)NC(=O)OC(C)(C)C)nn1 (some centres unmarked),13.3
6,CCC(C)(C)NC(=O)CN(Cc1ccc2c(c1)OCO2)C(=O)CCC(=O)Nc1cc(C)ccn1,0.971
7,O=S(=O)(Cc1ccccc1)N1CCC(N2CCN(c3ccccc3)CC2)CC1,2.34
8,CC(=O)c1c(C)[nH]c(C(=O)Nc2ccc(Cl)cc2)c1C,7.8
9,CCOc1ccc(NC(=O)C2C3C=CC4(CN(C(C(=O)OC)C(C)C)C(=O)C24)O3)cc1 (centres unmarked),7.86
10,c1coc(-c2nc3c4c5c(sc4ncn3n2)CCCC5)c1,3.82
11,O=C(COc1ccc(Cl)cc1)NCCS(=O)(=O)N1CCN(c2ccc(F)cc2)CC1,10.4
12,O=C(O)/C(=C\c1cccs1)c1ccc(F)cc1,9.33
13,OCCc1c[nH]c2cc(F)ccc12,10.4
14,CCc1ccc(C(=O)NNc2ccccc2F)cc1,-3.36
15,CCCOC(=O)CN1C(=O)c2ccc(C(=O)OCCC)cc2C1=O,8.09
16,COc1ccccc1CNC(=O)Cn1c(=O)oc2cc(Cl)ccc21,2.65
17,CCc1ccc(NC(=O)NCC2CCN(c3ccc(OC)cc3)C2)cc1 (centres unmarked),0.281
18,C(=C\c1ccccc1)/CN1CCN(Cc2nc(Cc3ccccc3)no2)CC1,-19.6
19,CCC(C)(C)n1nnnc1C(c1cc2ccc(OC)cc2[nH]c1=O)N1CCN(C2CCCCC2)CC1 (centres unmarked),-31
20,Nc1nc(N2CCCCC2)c(C=O)c(N2CCCCC2)n1,9.77
21,COC(=O)C(NC(=O)c1ccc(F)cc1)(Nc1ncc(S(=O)(=O)c2ccc([N+](=O)[O-])cc2)s1)C(F)(F)F (centres unmarked),2.74
22,Cc1ccc(NC(=O)NCc2cccnc2)cc1C,12.9
23,CC(=O)Nc1c(I)c(C(=O)N[C@H]2C(O)O[C@H](CO)[C@@H](O)[C@@H]2O)c(I)c(N(C)C(C)=O)c1I (some centres unmarked),0.626

row,Compound,"hERG current change (%, negative = inhibition) at 1uM [%]"
1,CN(c1ccccc1C(=O)N1CCCC1)S(C)(=O)=O,-6.33
2,CC(=O)Nc1cccc(NC(=O)COc2ccccc2C)c1,13.7
3,CCN(CC)c1ccc(NC(=O)c2ccco2)cc1,-9.85
4,C/C(=N\NC(=O)c1cc(C)[nH]n1)C(C)(C)C,10.1
5,O=[N+]([O-])c1ccc(NC2CCCC2)cc1,5.47
6,CCCCn1c(SCC(=O)NCc2ccco2)nc2cc(S(N)(=O)=O)ccc21,12.4
7,COc1ccc(C(=O)NCc2nnc(SCC(=O)N3CCc4ccccc43)n2C2CCCCC2)cc1,14
8,COC(=O)c1ccc(Oc2nc(NC(C)C)nc(N(C)C)n2)cc1,11.3
9,CCCOc1ccc(CCCN=C(N)N)cc1Cl.O=S(=O)(O)O,15.8
10,Cc1ccc(/C=C/C2=NN(Cc3ccc(Cl)c(Cl)c3)C(=O)CC2)cc1,8.6
11,COc1ccc(OC)c(NC(=O)c2cc3c(=O)n4ccccc4nc3n2C)c1,1.61
12,COc1ccc(N=CC=C2OC(C)(C)C(C)(C)O2)cc1OC.Cl,7.43
13,NNC(=O)c1ccc(CSc2n[nH]c(=O)[nH]c2=O)cc1,12
14,O=C(CSc1ncn[nH]1)Nc1cccc(S(=O)(=O)N2CCCCCC2)c1,-5.6
15,CC1=C2C3OC(=O)C(C)[C@@H]3CC[C@](C)(O)C2C2C3C4C5(C12)[C@H]1OC(=O)[C@@H](C)C1CC[C@]4(C)O[C@]5(C)[C@@H]3O (some centres unmarked),16.3
16,N/C(=N\OC(=O)COc1ccc(Br)cc1Cl)c1cccnc1,12.7
17,Cc1ccc(NC(=O)CCN2C(=O)c3cccc([N+](=O)[O-])c3C2=O)c(Br)c1,13.1
18,CC(C)Sc1ncc(S(=O)(=O)c2ccccc2)c(=O)[nH]1,13.9
19,COc1ccccc1C(=O)Nc1ccnn1C1CCN(Cc2cnc(N(C)C)s2)CC1,-24.7
20,CCCCCC(=O)Nc1ccc(-c2nnc3n2CCCCC3)cc1,14.1
21,S=c1[nH]nc(CNc2ccc(Cl)cc2)n1Cc1ccccc1,9.03
22,CCCCN(C)CCCNC(=O)/C=C1\Sc2ccccc2NC1=O,-0.0844
23,COC(=O)CSc1cnc2ccccc2n1,10.7

row,Compound,"hERG current change (%, negative = inhibition) at 1uM [%]"
1,O=S(=O)(c1cc(Cl)ccc1Cl)N1CCCCC1,13.8
2,CCc1ccc(CN(C)C(=O)c2cc(S(=O)(=O)N3CCOCC3)ccc2N2CCCC2)cc1,3.03
3,C#CCOCCOCCOCCNc1nc(N2CCN(C(=O)[C@H](Cc3ccc(O)cc3)n3cc(C(N)CC(C)C)nn3)CC2)nc(N2CCN(C(=O)[C@H](CCC(=O)O)n3cc(C(N)[C@H](C)CC)nn3)CC2)n1.Cl (some centres unmarked),10.8
4,O=C(O)CSc1nc2c(c(C(F)(F)F)n1)CCCC2,6.72
5,O=C(c1cccc(C(F)(F)F)c1)N1CCN(CCc2ccccc2)CC1,1.81
6,CC(=O)Nc1cccc(NC(=O)COC(=O)C2CC3CCCC(C2)C3=O)c1 (centres unmarked),10.4
7,Br.O=C(CN1C2=NCCN2c2ccccc21)c1ccc(Br)s1,-0.685
8,O=c1[nH]c2ccc(Br)cc2c(-c2ccccc2)c1CN1CCOCC1,-9.05
9,N#CCSc1nc2c(cc1C#N)CCCC2,-4.56
10,CC(=O)Nc1c(C)ccc2nsnc12,6.78
11,CNc1oc(-c2ccc(C)cc2)nc1P(=O)(c1ccccc1)c1ccccc1,5.8
12,COc1ccc(CC(=O)N2CC(=O)N(CCc3ccccc3)C(=O)C2)cc1,-21
13,O=C(OCc1cncs1)c1cccs1,14.9
14,Nc1c(C(=O)CSc2nnc(Cc3ccccc3)o2)c(=O)[nH]c(=O)n1C1CC1,9.63
15,CCCC(NCC(=O)Nc1cc(S(=O)(=O)N2CCOCC2)ccc1OC)c1ccccc1 (centres unmarked),3.06
16,CCN(CC)S(=O)(=O)c1ccc(Cl)c(NC(=O)COc2ccc(OC)cc2[N+](=O)[O-])c1,18.8
17,CC(C)(C)c1sc(N)nc1-c1ccccc1,11.9
18,CCOC(=O)C1(Cc2cccc(F)c2)CCN(C(=O)C2CCOCC2)CC1,2.81
19,Cc1cc(NC(=O)CCC(=O)N(CCC(C)C)C(C(=O)NC2CCCC2)c2cccnc2)no1 (centres unmarked),8.72
20,Cc1oc2c(F)c(F)c(F)c(F)c2c1S(=O)(=O)Nc1cccc(C(F)(F)F)c1,-15.6
